# The list shows a part of the results. The energies were worked out here from pooled read counts, against the library average; single values are noisy.
# Target: T1, Pho4 (S. cerevisiae) (UniProt P07270)
# T1 sequence: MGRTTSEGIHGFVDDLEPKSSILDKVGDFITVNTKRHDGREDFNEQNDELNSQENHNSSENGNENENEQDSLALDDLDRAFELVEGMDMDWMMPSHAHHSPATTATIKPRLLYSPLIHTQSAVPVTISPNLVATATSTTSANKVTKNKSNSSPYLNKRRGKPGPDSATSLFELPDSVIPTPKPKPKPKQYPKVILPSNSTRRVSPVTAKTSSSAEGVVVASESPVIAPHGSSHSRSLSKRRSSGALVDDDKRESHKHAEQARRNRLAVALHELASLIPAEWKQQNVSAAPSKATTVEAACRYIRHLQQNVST
# Assay: relative binding free energy (BET-seq); higher = weaker binding
# Conditions: reference: library average
row,Sequence,relative binding free energy
1,AAGCGCACGTGTTTGG,-0.12 kcal/mol
2,GCTTGCACGTGTAGTT,0.12 kcal/mol
3,TTATCCACGTGTTTTA,0.02 kcal/mol
4,TTAGTCACGTGTCATG,0.04 kcal/mol
5,GGCGTCACGTGGGGCT,-0.05 kcal/mol
6,GTGTCCACGTGGTGTT,-0.04 kcal/mol
7,AAGTGCACGTGGTCTT,-0.13 kcal/mol
8,TGTGACACGTGGATGC,-0.03 kcal/mol
9,GCAATCACGTGGGTTG,-0.02 kcal/mol
10,ATAGGCACGTGTTACT,-0.17 kcal/mol
11,TTAGTCACGTGGCTAG,0.06 kcal/mol
12,TAGCACACGTGAGTGG,0.15 kcal/mol
13,GGTAGCACGTGGTCAT,-0.14 kcal/mol
14,ATGGGCACGTGCGGAG,-0.18 kcal/mol
15,TTTGCCACGTGGAGTT,-0.09 kcal/mol
16,TCGAGCACGTGTTGGA,-0.1 kcal/mol
17,ATGTGCACGTGTGCTT,-0.13 kcal/mol
18,TGAAACACGTGTTTGT,0.02 kcal/mol
19,AGGAGCACGTGGGCGT,-0.2 kcal/mol
20,AGTGTCACGTGTAAAG,0.05 kcal/mol
21,CGATTCACGTGGTGTC,0.3 kcal/mol
22,GGTAGCACGTGTAGAT,0.08 kcal/mol
23,TTTTTCACGTGTGAAG,0.32 kcal/mol

row,Sequence,relative binding free energy
1,TCAAGCACGTGTTTAT,-0.06 kcal/mol
2,AGTAACACGTGAGAGG,0.16 kcal/mol
3,GGTAACACGTGGGAAG,0.02 kcal/mol
4,TTGAGCACGTGGGGCC,-0.21 kcal/mol
5,TTGCTCACGTGTTGCT,0.16 kcal/mol
6,ATAGTCACGTGAGGCT,0.41 kcal/mol
7,AGCGTCACGTGTGTTT,0.13 kcal/mol
8,TTTCTCACGTGTTTGG,0.23 kcal/mol
9,GTCTTCACGTGGGATG,0.24 kcal/mol
10,GTTTGCACGTGTGCCT,-0.02 kcal/mol
11,GAGTACACGTGGCTTG,0.05 kcal/mol
12,CATAGCACGTGTGTTG,-0.12 kcal/mol
13,AAAGTCACGTGGAGTG,-0.03 kcal/mol
14,GGGGCCACGTGAGGGG,0.13 kcal/mol
15,TAGGACACGTGGAGGA,-0.11 kcal/mol
16,GTATGCACGTGTGTAG,0.07 kcal/mol
17,AGATTCACGTGGGGGT,0.21 kcal/mol
18,TATAACACGTGGAGTG,0.07 kcal/mol
19,TTATCCACGTGGGTCG,0.03 kcal/mol
20,CGGGGCACGTGCGGAT,-0.17 kcal/mol
21,TCATTCACGTGTGCTT,0.28 kcal/mol
22,GCTTGCACGTGGTTGC,-0.03 kcal/mol
23,ATCGTCACGTGTTAGG,0.21 kcal/mol

row,Sequence,relative binding free energy
1,GGAAGCACGTGCGTTT,-0.03 kcal/mol
2,GGTGCCACGTGATGTT,0.18 kcal/mol
3,TTTGACACGTGGTAGG,-0.08 kcal/mol
4,TTTGGCACGTGCGCGA,-0.21 kcal/mol
5,TGTGGCACGTGATTGC,-0.01 kcal/mol
6,CCTTACACGTGGGGTT,-0.01 kcal/mol
7,TCATGCACGTGTGGGC,-0.07 kcal/mol
8,ATATACACGTGCGGGA,0.13 kcal/mol
9,AGGGTCACGTGTCAAG,0.06 kcal/mol
10,TTACTCACGTGGCGGG,0.13 kcal/mol
11,AAAGTCACGTGTGAGA,0.17 kcal/mol
12,ATCTTCACGTGGTCGG,0.14 kcal/mol
13,TGCAACACGTGAGTTT,0.26 kcal/mol
14,GAAGTCACGTGGAAGG,0.21 kcal/mol
15,TGTCTCACGTGAAGGG,0.43 kcal/mol
16,CGTTACACGTGGTTGT,0.07 kcal/mol
17,CGGGACACGTGGATAG,0.06 kcal/mol
18,GGAGTCACGTGTGGTG,0.25 kcal/mol
19,ACGGCCACGTGTGTGT,-0.12 kcal/mol
20,TGTATCACGTGGTTAA,0.01 kcal/mol
21,ATTTTCACGTGCAATG,0.22 kcal/mol
22,TAGACCACGTGGGGGG,-0.21 kcal/mol
23,TTTAACACGTGTTTCA,0.1 kcal/mol

row,Sequence,relative binding free energy
1,AGGGACACGTGCTAGT,0.08 kcal/mol
2,AGGGTCACGTGCACTG,0.07 kcal/mol
3,AGGTTCACGTGGCCGG,0.3 kcal/mol
4,GGTATCACGTGATTAG,0.29 kcal/mol
5,TTGTGCACGTGGAGGT,0.06 kcal/mol
6,GCATACACGTGGGTGG,-0.04 kcal/mol
7,ATATACACGTGCAGGG,-0.01 kcal/mol
8,GTGGTCACGTGTTCGG,0.29 kcal/mol
9,GCGTCCACGTGGTTTT,0.23 kcal/mol
10,TGTGGCACGTGTCTGT,-0.04 kcal/mol
11,GGGATCACGTGTGGCT,0.15 kcal/mol
12,AGAGGCACGTGTATAG,-0.03 kcal/mol
13,CGTCGCACGTGGGCGT,-0.24 kcal/mol
14,AACGGCACGTGGTGTG,-0.19 kcal/mol
15,CATTTCACGTGATTAG,0.25 kcal/mol
16,CATGACACGTGTAGTG,0.02 kcal/mol
17,CTTAGCACGTGCTGTT,-0.12 kcal/mol
18,GTAGACACGTGGTTGT,0 kcal/mol
19,TGTCGCACGTGCGGTA,-0.18 kcal/mol
20,AATTTCACGTGGGTGG,0.31 kcal/mol
21,GTGTCCACGTGTTAGT,0.12 kcal/mol
22,TGGGTCACGTGGAAGA,0.05 kcal/mol
23,TGAAGCACGTGCGTTG,-0.08 kcal/mol

row,Sequence,relative binding free energy
1,GGTGTCACGTGGAAGT,0.15 kcal/mol
2,TTGGCCACGTGATGAT,0.22 kcal/mol
3,ACTGTCACGTGGGGTT,-0.21 kcal/mol
4,GGTAGCACGTGGAGAT,-0.08 kcal/mol
5,GGGTTCACGTGGTACG,0.36 kcal/mol
6,TACGGCACGTGAGGAG,0.02 kcal/mol
7,TTTTACACGTGGGTTC,0.08 kcal/mol
8,GTTGACACGTGATGCT,0.08 kcal/mol
9,AGTTCCACGTGGTGCA,0.12 kcal/mol
10,AATGTCACGTGGGCTG,-0.1 kcal/mol
11,GAGATCACGTGGTGGA,0.21 kcal/mol
12,TGTAACACGTGCGGGC,-0.07 kcal/mol
13,TGTGTCACGTGAAAAG,0.27 kcal/mol
14,CTGAGCACGTGGAGTT,0.01 kcal/mol
15,GGAGACACGTGAGGGC,0.17 kcal/mol
16,CAATACACGTGGTGGG,-0.02 kcal/mol
17,ATCGGCACGTGATGTG,0.03 kcal/mol
18,TGTGTCACGTGTAAGG,0.2 kcal/mol
19,TATAGCACGTGTTAAA,0.01 kcal/mol
20,TGGGGCACGTGGGGCC,-0.22 kcal/mol
21,TTTGTCACGTGTGCCA,-0.01 kcal/mol
22,ATTATCACGTGATCTG,0.35 kcal/mol
23,AGCTTCACGTGTTTAG,0.24 kcal/mol

# Reference: the BET-seq Pho4 binding data (Le et al. 2018)
